Measurements taken from publication PMC10893529.
These are yes or no findings as the source states them, for the method shown. Binding seen in cells or lysates may run through a third protein. Some results given as binding are weak or reduced against the parent protein; the word gives no strength. For part of these data: Sequences can lack the tags named with a protein.

The chains behind the UniProt entries cited, without tags or fusion partners. Where a name states a change or a piece, a line headed by the entry shows the natural chain unless it says otherwise. A line that says so, or that is headed by a name, gives the form on record, which may keep a tag or linker. Residues count along the entry.
UniProt P39748, residues 175-366: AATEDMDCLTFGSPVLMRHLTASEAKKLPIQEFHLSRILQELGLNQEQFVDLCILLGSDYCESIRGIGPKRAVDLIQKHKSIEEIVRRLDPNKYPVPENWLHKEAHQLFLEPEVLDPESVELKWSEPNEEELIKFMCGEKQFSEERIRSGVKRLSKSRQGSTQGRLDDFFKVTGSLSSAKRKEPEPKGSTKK
UniProt Q9Y572: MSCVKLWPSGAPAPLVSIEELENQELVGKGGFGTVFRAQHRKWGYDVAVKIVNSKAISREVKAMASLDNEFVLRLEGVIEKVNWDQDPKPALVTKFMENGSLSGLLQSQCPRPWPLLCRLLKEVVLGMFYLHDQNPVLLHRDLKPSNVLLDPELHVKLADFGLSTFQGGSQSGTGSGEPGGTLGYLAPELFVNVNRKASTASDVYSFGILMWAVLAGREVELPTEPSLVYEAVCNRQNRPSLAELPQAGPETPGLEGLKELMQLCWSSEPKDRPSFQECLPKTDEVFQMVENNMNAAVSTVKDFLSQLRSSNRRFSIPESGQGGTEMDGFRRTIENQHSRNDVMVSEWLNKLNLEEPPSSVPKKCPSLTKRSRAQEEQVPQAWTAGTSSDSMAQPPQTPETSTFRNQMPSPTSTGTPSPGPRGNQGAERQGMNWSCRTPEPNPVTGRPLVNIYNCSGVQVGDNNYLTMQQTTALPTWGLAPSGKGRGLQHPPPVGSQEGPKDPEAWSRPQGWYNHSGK
FLAG-tagged RIPK3 mutant aa1-443: residues 1-443 of Q9Y572

What was measured:
[1] = target: FLAG-FEN1 aa175-366 (pHM4273) (UniProt P39748); assay: co-IP
[2] = target: T1, FLAG-MLKL (pHM5117) (human) (UniProt Q8NB16); assay: co-IP
T1 sequence: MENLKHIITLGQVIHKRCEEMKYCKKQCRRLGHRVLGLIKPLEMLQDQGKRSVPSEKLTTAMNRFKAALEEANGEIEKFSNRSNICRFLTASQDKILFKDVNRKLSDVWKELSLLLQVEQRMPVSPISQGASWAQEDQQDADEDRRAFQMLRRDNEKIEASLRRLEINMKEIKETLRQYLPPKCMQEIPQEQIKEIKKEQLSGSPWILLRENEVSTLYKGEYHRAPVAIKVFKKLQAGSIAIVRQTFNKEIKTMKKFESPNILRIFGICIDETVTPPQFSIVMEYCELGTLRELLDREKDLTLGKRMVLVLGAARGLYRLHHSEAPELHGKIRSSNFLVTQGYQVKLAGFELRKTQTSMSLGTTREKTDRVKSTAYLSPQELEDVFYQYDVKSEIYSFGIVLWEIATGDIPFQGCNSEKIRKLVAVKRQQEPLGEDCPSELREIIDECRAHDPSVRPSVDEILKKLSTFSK

[3] = target: FLAG-tagged RIPK3 (human) (UniProt Q9Y572); assay: co-IP
[4] = target: FLAG-tagged RIPK3 mutant aa1-443 (human) (UniProt Q9Y572); assay: co-IP; FLAG-tagged RIPK3 variants expressed in HEK293T; purified bacterial IE1 utilized; IP with anti-FLAG magnetic beads; only the binder purified
[5] = target: FLAG-tagged RIPK3 (human) (UniProt Q9Y572); assay: as above
[6] = target: FLAG-IE1 aa1-491 (pHM5156) (human cytomegalovirus) (UniProt P13202); assay: co-IP; HEK293T transfected with FLAG-tagged IE1 variants and RIPK3; IP with anti-FLAG magnetic beads

**Q.** What does the source list for “immediate-early 1 (IE1) protein of human cytomegalovirus, expressed from pcDNA3 (pHM494) (from UniProt P13202 1-491)”?
**A.** binding [1]: binds; binding [2]: no binding; binding [3]: binds

**Q.** For “purified IE1 expressed in bacteria (from UniProt P13202 1-491)”, which binding [4] is on record?
**A.** binds

**Q.** And the binding [5]?
**A.** binds

**Q.** Which binding [6] does the source give for “RIPK3-MYC (pHM5136) (from UniProt Q9Y572 1-518)” here?
**A.** binds
